# Variants at the floor of the assay are shown more often than the library holds them.
# B1: TPR 5TU (parent)
# chain: GGAUCUUCUCGAUCUAACAAAAAAGACAAAUCUGCCACAAAGCUUGAGAGCAUCUUCGGAUGCAGAGGCGGCAGCCUUCGGUGGCGCGAUAGCGCCAACGUUCUCAACUAUGACACGCAAAACGCGUGCUCCGUUGAAUGGAGUUUAUCAUG
# Variants of: B1
# Test: polymerase ribozyme fitness, log enrichment relative to wild type (log ratio); higher = more active; in vitro selection for triplet polymerase activity
# Method in brief: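 Only genotypes with ≥10 input reads and ≥1 read per output were kept after Illumina sequencing of input and output libraries. These libraries were PCR-built, transcribed mutants of each subunit of a heterodimeric triplet polymerase ribozyme, each put through one triplicate in vitro selection round with frozen incubation at −7 °C, gel excision of extended constructs, streptavidin-bead capture and RT-PCR. Fitness is a logarithmic ratio of genotype enrichment to wild-type enrichment, from inverse-variance-weighted replicate averages, with the logarithm in base 2.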
row,Variant,polymerase ribozyme fitness (log ratio)
1,GGAUCUUCUCGAUCGAACAAAAAAGACAAAUCUGCCACAAAGCGUGAGAGCAUCUUCGGAUGCAGAGGCGGCAGCCUUCGGUGGCGCUAUAGAGCCAACGUUCUCAACUAUGACACGGAAGACGCGUGCUCCGUUGAAUGGAGUUUAUCAUG [U15G U44G G88U C93A C118G A121G],≤ -4.2
2,GGAUCUUCUCGAUCGAACAAAAAAGACAAAACUGCCACAAAGCUUGAGAGCAUCUUCGGAUGCAGAGGCGGCAGCCUUCGGUGGCUCGAUAGCGCCAACGUUCUCAACUAUGACACGCAAAACGCGUACUCCUUUGAAUGGACUUUAUCAUG [U15G U31A G86U G128A G133U G143C],≤ -4.2
3,GGAUCUUCUCGAUCGAACAAAAAAGACAAAUCUGCCACAAAGCUUGAGAGCAUCUUCGGAUGCAGAGGCGGCAGCCUUCGGUGGUGCGAUAGCGCCAACCUUCUCAACUAUGACAGGCAAAACGCGUGCUCCGUUGAAUGCAGUUUAUCAUG [U15G C85U G100C C116G G141C],≤ -4.2
4,GGAUCUUCUCGAUCGAACAAAAAAUACAAAUCUGCCACAAAGCAGGAGAGCAUCUUCGGAUGCAGAGGCGGCAGCCGUCGGUGGCGCGAUAGGGCCAACGUUCUCACCUAUGACACGCAAAACGCGUGCUCCGUUGAAUGGAGUUUAUCAUG [U15G G25U U44A U45G U77G C93G A107C],≤ -4.2
5,GGAUCUUCUCGAUCGAACAAAAAAGACAAAUCAGCCACAAAGCUUGAGCGCAUCUUCGGAUGCAGACGCGGCAGCCUUCGGUGGCGCGAUAGCGCCAACGUUCUCAACUAUGGCACGCAAAACGCGUGCUCCGUUGAAUGUAGUUUAUCAUG [U15G U33A A49C G67C A113G G141U],≤ -4.2
6,GGAUCUUCUCGAUCUCUCAAAAAAGACAAAUCUGACACAAAGCUUGAGAGCAUCUUCGGAUGCAGAGGCGGUGGCCUUCGGUGGCGCGAUAGCGCCAACGUUCUCAACUAUGACACGCAAAACGCGUGCUCCGUUGAAUGGAGUUUAUCAUG [A16C A17U C35A C72U A73G],≤ -4.2
7,GGAUCUUCUCGAUCUCUCAAACAAGACAAAUCUGCCACAAAGCUUGAGAGCAUCUUCGGAUGCAGAGGCGGCAGCCUUCGGUGGCGCGAUAACGCCAACGUUCUCAACUAUGACACGCAAAACGCGUGCUCCGUUGAAUGGAGUUUACCAUG [A16C A17U A22C G92A U148C],≤ -4.2
8,GGAUCUUCUCGAUCGAACAAAAAAGACAAAUCUGCCACAAAGCUUGAGAGCAUCUUCAGAAGCACAGGCGGCAGCCAUCGGUGGCGCGAUACCGCCAACGUUCUCAACUCUGACACGCAAAACGCGUGCUCCGUUGAAUGGAGUUUAUCAUG [U15G G58A U61A G65C U77A G92C A110C],≤ -4.2
9,GGAUCUUCUCGAUCUCACAAUAAAGACAAAUCUGCCACAAAGCUUGAGAGCAUCUUCGGAUGCAGAGGUGACAGCCUUCGGUGGCGCGAUAGCGCCAACGUUCUCAACUAUGACACGCAAAACGCGUGCUCCGUUGAAUGGAGUUUAUCAUG [A16C A21U C69U G71A],-1.79
10,GGAUCUUCUCGAUCGAACAAAAAAGACAAAUCUGCCACAAAGCUUGAGAGCAUCAUCGGAUGCAGAGGCGGCAGCCCUCGGUGGCGCGAUAGUGCCAACGUUCUCAACUAUGACACGCAAAACGGGUGCUCCGUUGAAUGGAGUUUAUCAUG [U15G U55A U77C C93U C125G],≤ -4.2
11,GGAUCUUCUCGAUCGAACAAAAAAGACAAAUCUGCCACAAAACUUAAGAACAUCUUCGGAUGCAGAGGCGGCAGCCUUCGGUGGCGCGCUAGCGCCAACGUUCUCAACUAUGACACGCAAAACGCGUGCUCCGUUGAAUGGAGUUUAUCAUG [U15G G42A G46A G50A A89C],≤ -4.2
12,GGAUCUUCUCGAUCUCACACAAAAGACACAUCUGCCACAAAGCUUGAGAGCAUCAUCGGAUGCAGAGGCGGCAGCCUUCGGUUGCGCGAUAGCGCCAACGUUCUCAACUAUGACACGCAAAACGCGUGCUCCGUUGAAUGGAGUUUAUCAUG [A16C A20C A29C U55A G83U],≤ -4.2
13,GGAUCUUCUCGAUCGAACAAAAAAGACAAAUCUGCCACAAAGCUUGAGAACAUCUUCGGAUGCAGAGGCGGCGGCCUUCGGUGGCGCGAUAGCGCCAACGUUCUCAACUAUGACACGCAAAACGCGUGCUCCGUCGAAUUGAGUUUAUCAUG [U15G G50A A73G U135C G140U],≤ -4.2
14,GGAUCUUCUCGAUCGAACAAAAAACACAAAUCUGCCACAAAGCUUGAGAGAAUCUUCGGAUGCAGAGGCGGCAGCCUUCGGUGGCGCGAUAGCGCGAACGUUCUCAACUAUGACACGCAAAACGCGUGCUCCGUUGAAUGGAGUUUAUGAUG [U15G G25C C51A C96G C149G],≤ -4.2
15,GGAUCUUCUCGAUCGAACAAAAAAGACAAAUCUGCCACAAAGCUUGAGAGCAUCUUCGGAUGCAGAGGCGGCAGCCUUCGGCGGCGCGAUAGCGCCAACGUUGUCAACUAUGACACUCAAAACGCGUGCUCCGUUGAAUGUAGUUUAUCAUG [U15G U82C C103G G117U G141U],≤ -4.2
16,GGAUCUUCUCGAUCUCACAAGAAAGACAAAUCUGCCACAAAGCUUGAGAGCAUCUUUGGAUGCAGAGGCGGCAGCCUUCGGUGGCGCGAUAACGCCAACGUUCUUAACUAUGACACGCAAAACGCCUGCUCCGGUGAAUGGAGUUUGUCAUG [A16C A21G C57U G92A C105U G126C U134G A147G],≤ -4.2
17,GGAUCUUCUCGAUCGAACAAAAAAUACAAAUCUGCCACAAAGCUUGAGAGCAUCUUCGGAGGCAGAGGCGGCAGCCUUCGGUGGCGCGAUAGGGCCAACGUUCUCAACUAUGACACGCAAAACGCGUGCUCCGUCGAAUGGAGUUUAUCAUG [U15G G25U U61G C93G U135C],≤ -4.2
18,GGAUCUUCUCGAUCGAACAAAAAAGACAAAUCUGCCACAAAGCUUGAGAGCAACUUCGGAUGCAGAGGCGGCAGCCUUCGGUGGCGCGAUAGGGCCAACGUUCUCAACUAUGACACGCAAAACGCGUGCUCCGUUGAAUGGAGUUUAUCAUG [U15G U53A C93G],≤ -4.2
19,GGAUCUUCUCGAUCGAACAAAAAAGACAAAGCUGCCACAAAGCUUGAGAGCAUCUUCGGAUGCAGAGGCGGCAGUCUUCGGUGGCGCGAUCGCGCCAACGUUCUCAACUAUGACACGCAAAACGCGUGCUCUGCUGAAUGGAGUUUAUCACG [U15G U31G C75U A91C C132U U134C U151C],≤ -4.2

# From the RNAGym collection of RNA variant scans (doi:10.1073/pnas.2313332121)
